# Screen size: about 410,000 compounds; about 7,200 (1.8%) were called active. The inconclusive results got no clear call from the source; some entries with a clear call stand among them for comparison. Calls come from the whole dose curve; as a rule, active = well fitted activation curve with a large enough effect; inconclusive = small, poorly fitted or top-dose-only effect, or another doubt; inactive = no such curve, though single readings can be large or run the other way. No potency is given beside an inconclusive call; the fits are too rough.
# Assay: qHTS of TDP-43 Inhibitors; note: nearly all actives have a fitted effect of over 50% in size; for growth rescue (activation): % of control where 0% means no effect
# Conditions: TDP-43 expressing yeast growth rescue, BacTiter-Glo, 24 h; growth rescue (activation): at 46.1 µM (top of the series) unless noted
# Summary of the method: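 Cell-based yeast growth screen: TDP-43 expression induced in galactose, inoculum OD600=0.02 after raffinose pregrowth to mid-log. Read-out BacTiter-Glo luminescence at 24 hr, 30 deg C; inhibition of toxicity seen as signal increase.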
# Potency is the fitted concentration of half-maximal effect; tags give direction and shape of the fitted curve.
SMILES,Potency,growth rescue (activation)
O=C1[C@@H](Oc2ccccc2)[C@@H](c2cnc3ccccc3c2)N1c1ccccc1,"inconclusive [activator, single point]",
COc1ccccc1OCc1nc(Cc2ccc(Cl)cc2)no1,"inconclusive [activator, partial curve]",
Cc1cc(Nc2ccc(F)cc2)nc(-n2nc(C)cc2C)n1,"inconclusive [activator, full curve]",
CCOc1ccccc1NC(=O)CN1C=NS(=O)(=O)c2ccccc21,"inconclusive [activator, single point]",
Cc1ccc(CCNC(=O)c2ccc(CS(=O)(=O)Cc3ccccc3F)o2)cc1,"inconclusive [activator, single point]",
Cc1cccc(Oc2ncnc(N)c2[N+](=O)[O-])c1,"inconclusive [activator, single point]",
O=C(COC(=O)CSc1nnc(-c2ccc(Cl)cc2)o1)Nc1cc(Cl)cc(Cl)c1,,inactive: 2.47%
CCOC(=O)c1c(N2C(=O)CC(Sc3ccccc3C(=O)O)C2=O)sc2c1CCCC2 (stereo not drawn),"inconclusive [activator, single point]",
O=C(Nc1ccccc1)OCC1CCCO1 (stereo not drawn),,inactive: 2.54%
CCCCc1c(-c2cccc(Br)c2)ncn1CCc1ccccc1OC,active: 25.1 µM,
COCC(=O)N1c2nc(-c3ccco3)nn2C2(CCCCC2)[C@@H]2CCCC[C@@H]21,,inactive: 15.4%
CCCCCCCCCn1ccc(=N)cc1,,inactive: -11.1%
Cc1cccc(N2CCN(C(=O)c3cccc(N4C(=O)C5C6C=CC(C6)C5C4=O)c3)CC2)c1C (stereo not drawn),"inconclusive [activator, single point]",
CC(=O)N(C)c1ccc(C(O)(C(F)(F)F)C(F)(F)F)cc1,,inactive: -19% [at 1.82 µM]
COc1cccc(N2CC(NC(=O)C3CC3)CC2=O)c1 (stereo not drawn),,inactive: 14.5%
Cc1cccc(NC(=O)CCC(=O)c2cccs2)n1,,inactive: -22.5%
C(=NN=C1c2ccccc2-c2ccccc21)c1c[nH]c2ccccc12,active: 12.6 µM,
COc1cccc(C2=CC(c3ccccc3F)n3c(nc4ccccc43)N2)c1 (stereo not drawn),"inconclusive [activator, full curve, poor fit]",
C=C(C)CNC(=S)N/N=C/C1=CCC2CC1C2(C)C (stereo not drawn),active: 17.8 µM,
COc1ccc2oc(C(=O)Nc3nc4ccccc4[nH]3)c(C)c2c1,,inactive: 2.69%
COC(=O)c1cccc(CN2C(=O)C(C)Sc3ccc(C(C)=O)cc32)c1 (stereo not drawn),"inconclusive [activator, single point]",
S=C1NCN(Cc2cccnc2)CN1Cc1ccccc1,,inactive: 8.47%
CCc1ccc(-c2cn(-c3nc(C)cc(C)n3)c(=N)o2)cc1,"inconclusive [activator, single point]",
Cc1ccc(S(=O)(=O)NCCc2csc3nc(-c4ccccc4C)nn23)cc1,"inconclusive [activator, single point]",
Nc1ccc(OCc2ccccc2)cc1[N+](=O)[O-],"inconclusive [activator, partial curve]",

SMILES,Potency,growth rescue (activation)
COc1ccc(/C=C2/CCc3ccccc3C2=O)cc1OC,"inconclusive [activator, partial curve]",
CCOc1cc(CNC(=O)c2ccc3nc(CCc4ccccc4)oc3c2)ccc1OC,"inconclusive [activator, partial curve, poor fit]",
O=C(CSc1nc2ccccc2n1Cc1c(F)cccc1Cl)N1CCN(c2ccc(F)cc2)CC1,,inactive: 0.293%
CCCc1cc(C(=O)Nc2cccc(Cl)c2C)no1,"inconclusive [activator, partial curve]",
O=[N+]([O-])c1ccc(O)c(/C=N/Nc2nc3ccccc3[nH]2)c1,,inactive: 18.9%
FC(F)(F)c1ccc(N2CCN(c3ncnc4c3nnn4Cc3ccccc3)CC2)nc1,,inactive: -15.5%
O=C(c1ccc(Cl)c([N+](=O)[O-])c1)N1CCCc2ccccc21,"inconclusive [activator, partial curve]",
COc1ccc(S(=O)(=O)Nc2cc3c(cc2NCc2ccccc2)n(C)c(=O)n3C)cc1,,inactive: 23.6%
CCCCCCCCCCCNC(=O)c1ccoc1C,"inconclusive [activator, single point]",
Cc1nc2cc(-c3ccccc3)nn2c(C)c1CCC(=O)NC(C)c1ccc2c(c1)OCCO2 (stereo not drawn),"inconclusive [activator, single point]",
CCOC(=O)CCc1ccc(NC(=O)/C=C/c2ccc([N+](=O)[O-])o2)cc1,"inconclusive [activator, partial curve]",
COc1cccc(C(C)NC(=O)Nc2ccccc2Cl)c1 (stereo not drawn),"inconclusive [activator, single point]",
FC(F)(F)c1cccc(NC(=S)N2CCN(c3ccccc3)CC2)c1,"inconclusive [activator, partial curve]",
CN(/C=C/C(=O)C(F)(F)F)Cc1ccccc1,"inconclusive [activator, single point]",
Cc1ccc(NC(=O)c2oc3c(c2C)C(=O)CC(C)(C)C3)cc1,"inconclusive [activator, partial curve]",
Cc1nonc1NC(=O)c1ccc(Cl)c(S(=O)(=O)N2CCCCC2)c1,,inactive: 4.02%
O=C(CSc1ccc2c(c1)OCCO2)Nc1ccc(Cl)cn1,active: 11.2 µM,
O=C(Cn1c(-c2ccc(Cl)cc2)noc1=O)N1CCN(c2ccccc2F)CC1,"inconclusive [activator, single point]",
CC(=O)N1CCOc2cc(S(=O)(=O)N(C)Cc3ccccc3)c(Cl)cc21,,inactive: 12%
Cc1nc(-c2ccc(S(=O)(=O)N3CCN(c4ccc(F)cc4)CC3)cc2)co1,"inconclusive [activator, full curve]",
CCn1c(/C=C/c2cccc([N+](=O)[O-])c2)nc2ccccc2c1=O,"inconclusive [activator, full curve, poor fit]",
O=C(CN1CCCN(Cc2ccc(F)cc2)S1(=O)=O)NCc1ccccc1Cl,"inconclusive [activator, partial curve]",
O=C(Nc1nc(-c2ccccn2)cs1)c1ccc(Cl)s1,,inconclusive: -90.7% [activator]
CC(C)OC(=O)n1c(=S)oc2ccccc21,"inconclusive [activator, single point]",
CCOc1ccc(NC(=O)CN2C(=O)C3(SCC(=O)N3c3ccc(F)cc3)c3ccccc32)cc1 (stereo not drawn),,inactive: 13.5%

SMILES,Potency,growth rescue (activation)
O=C(Nc1cccc(S(=O)(=O)N2CCCC2)c1)[C@@H]1O[C@H](CO)[C@@H](O)[C@H]1O,"inconclusive [activator, partial curve, poor fit]",
CCN1C(=O)C(Cc2nc3ccccc3c(=O)n2-c2ccccc2)c2cc(Br)ccc21 (stereo not drawn),"inconclusive [activator, partial curve]",
c1ccc(-c2ccc(-c3ccncn3)cc2)cc1,"inconclusive [activator, single point]",
CCOc1ccccc1NC(=O)Cn1c2ncccc2c(=O)n1-c1ccc(C)c(C)c1,,inactive: 0%
CCc1ccc2nc(N3CCN(C(=O)C4CC4)CC3)sc2c1,"inconclusive [activator, partial curve]",
Cc1cccc(Nc2ncnc3c2cnn3Cc2ccccc2)c1,active: 15.8 µM,
COC(=O)c1sccc1NC(=O)Nc1ccccc1C,active: 11.2 µM,
CSc1ncc(Cl)c(C(=O)Nc2cccc(C)c2)n1,"inconclusive [activator, partial curve]",
CCOC(=O)c1ccc(NS(=O)(=O)c2ccc3[nH]c4c(c3c2)CCCCC4)cc1,,inactive: 5.71%
COc1ccccc1NC(=O)c1cc(C)oc1C,"inconclusive [activator, partial curve]",
CN(C)c1ccc(C(=O)/C=C/c2ccco2)cc1,"inconclusive [activator, partial curve, poor fit]",
COc1ccc2cc(C(=O)NC3CCCCC3)c(=O)oc2c1,,inactive: -9.33%
CCOC(=O)c1ccsc1NC(=O)c1ccco1,"inconclusive [activator, partial curve]",
CC(O)(c1cccc(F)c1)c1nc(-c2ccncc2)cs1 (stereo not drawn),"inconclusive [activator, single point]",
CCOC(=O)C1=CC[C@@H](c2ccccc2)N(S(=O)(=O)c2ccc(C)cc2)[C@H]1c1cccc(OC)c1,"inconclusive [activator, full curve, poor fit]",
O=C1C=CC(=O)N1c1ccc(-c2nc3ccccc3o2)cc1,,inconclusive: -91.7% [activator]
COc1cccc(N2CCN(C(=O)c3ccc(NC(=O)c4nsc5ccccc45)cc3)CC2)c1,"inconclusive [activator, partial curve]",
O=C(CSc1nc(-c2ccc(F)cc2)cc(C(F)(F)F)n1)NCCc1ccccc1,,inactive: 11%
COc1ccc(C(=O)C2CCCN(C(=O)c3cccc(Cl)c3F)C2)cc1OC (stereo not drawn),"inconclusive [activator, partial curve]",
Cc1nc(-c2ccc(Cl)cc2)sc1C1(C)CC(c2ccccc2Br)=NO1 (stereo not drawn),,inactive: -2.29%
O=C(CCCn1c(=S)[nH]c2ccc(Br)cc2c1=O)N1CCN(c2ccccn2)CC1,,inactive: -26.9%
COc1cccc(N2CCN(S(=O)(=O)c3ccc(-c4ccno4)cc3OC)CC2)c1,active: 12.6 µM,
O=C(CSc1cn(CC(=O)N2CCCCC2)c2ccccc12)Nc1ccc(C(F)(F)F)cc1,"inconclusive [activator, full curve]",

# Reference: PubChem BioAssay AID652104 (National Center for Advancing Translational Sciences (NCATS), 2013)
